# Laboratory results from the supplement of paper PMC11348887.
# Values joined by “and” are separate entries in the source; they are usually repeats but may differ in a detail not shown here. Equal entries are not always repeated. Structures can show the parent of a compound that is named as a salt. The list shows a part of the results. No stated cut-off is given here; in the data, active = -2 or less and inactive = the rest. Single values are uncertain, as repeats are few or missing.
# System: hPSC-derived cortical neurons (WA09)
# Test: nuclei number (viability) z-score; higher = more surviving cells
# Conditions: 5 µM; treatment: days 7-14 after plating, readout day 21
# 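Further: nuclei counted from DAPI counterstain by automated high-content image analysis, four fields per well at ×20 in 384-well plates, with sequential b-score then z-score normalization.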
row,Compound,nuclei number (z-score)
1,COc1cc(/C=C/C(=O)O)ccc1O [Ferulic Acid],inactive: -0.0488
2,C[N+]1(C)CCC(=C(c2ccccc2)c2ccccc2)CC1 [Diphemanil Methylsulfate],inactive: -0.00202
3,NS(=O)(=O)c1cc2c(cc1Cl)NCNS2(=O)=O [Hydrochlorothiazide],inactive: 1.71
4,O=C(NC1CCOCC1)c1ccc(-c2cc(-c3c[nH]nc3-c3ccccn3)ccn2)cc1,inactive: 16
5,O=C1C(=O)N(Cc2ccc(Cl)c(Cl)c2)c2ccccc21 [Apoptosis Activator 2],inactive: -0.202
6,CC(C)(F)C[C@H](N[C@@H](c1ccc(-c2ccc(S(C)(=O)=O)cc2)cc1)C(F)(F)F)C(=O)NC1(C#N)CC1 [Odanacatib (MK-0822)],inactive: 0.121
7,COc1cc(C)c(/C=C/C(C)=C/C=C/C(C)=C/C(=O)O)c(C)c1C [Acitretin],inactive: 0.346
8,C[C@@H]1COCCN1c1cc(C2([S@](C)(=N)=O)CC2)nc(-c2cc[nH]c3nccc2-3)n1,inactive: -0.136
9,Cc1cc(N2C[C@@H](C)N[C@@H](C)C2)ncc1-c1ccc(-c2nc3c(ccn3C)c(=O)[nH]2)cc1,inactive: 0.1
10,CNC(=O)c1nn(C)c2c1C(C)(C)Cc1cnc(Nc3ccc(N4CCN(C)CC4)cc3)nc1-2,active: -5.33
11,CC(C)(O)CC[C@@H](O)[C@](C)(O)[C@H]1CC[C@@]2(O)C3=CC(=O)[C@@H]4C[C@@H](O)[C@@H](O)C[C@]4(C)[C@H]3CC[C@]12C [20-Hydroxyecdysone],inactive: 0.154
12,CN[C@@H](C)C(=O)N[C@H](C(=O)N1CCC[C@H]1C(=O)Nc1snnc1-c1ccccc1)C1CCCCC1,inactive: 0.61
13,COc1cc2nc(N3CCN(C(=O)C4CCCO4)CC3)nc(N)c2cc1OC (stereo unspecified) [Terazosin HCl],inactive: -0.356
14,Oc1ccc(O)cc1 [Hydroquinone],inactive: -0.378
15,CN1CCN(c2cccc(Nc3nc4c(-c5ccc(S(C)(=O)=O)cc5)cccn4n3)c2)CC1,inactive: 0.38
16,CC(=O)OCC(=O)[C@@]1(O)CC[C@H]2[C@@H]3CCC4=CC(=O)CC[C@]4(C)[C@H]3C(=O)C[C@@]21C [Cortisone acetate],inactive: -0.138
17,CCCCC(=O)O[C@]1(C(=O)CO)[C@@H](C)C[C@H]2[C@@H]3CCC4=CC(=O)C=C[C@]4(C)[C@@]3(F)[C@@H](O)C[C@@]21C [Betamethasone Valerate],inactive: -0.147
18,CNS(=O)(=O)Nc1nccc(Cc2c(C)c3ccc(Oc4ncccn4)cc3oc2=O)c1F,inactive: 1.56
19,OC[C@@H](O)[C@@H](O)[C@H](O)[C@@H](O)CO [Sorbitol],inactive: 7.16
20,CC(C)(C)c1cc(C(=O)C(C#N)=NNc2cccc(Cl)c2)no1,inactive: 2.81
21,CN(C)CCCOc1nn(Cc2ccccc2)c2ccccc12 [Benzydamine HCl],inactive: 0.236
22,O=C1c2c(O)cc(O)cc2OC(c2ccc(O)c(O)c2)C1O (stereo unspecified) [Taxifolin (Dihydroquercetin)],inactive: 0.353
23,FC(F)(F)c1ccc(/C=C/c2nc(COc3ccc(CCCCn4ccnn4)cc3)co2)cc1 [Mubritinib (TAK 165)],inactive: -0.445
24,N#Cc1ccc(C(c2ccc(C#N)cc2)n2cncn2)cc1 [Letrozole],inactive: 2.78

row,Compound,nuclei number (z-score)
1,Clc1ccc(CCC(Cn2ccnc2)Sc2c(Cl)cccc2Cl)cc1 (stereo unspecified) [Butoconazole nitrate],active: -3.55
2,C[C@@]1(C(=O)Nc2ccc(F)nc2)CCCN1c1nc(Nc2cc(C3CC3)n[nH]2)c2cccn2n1,active: -6.9
3,CN(C)C(=O)Nc1cccc(-c2ccc(N(C)C)cc2)c1 [Atglistatin],inactive: -0.156
4,O=C(Nc1cccc(Cl)c1)c1ccccn1,inactive: 0.882
5,C[N+]1(C)CCC(OC(=O)C(O)(c2ccccc2)C2CCCC2)C1 (stereo unspecified) [Glycopyrrolate],inactive: 0.288
6,CCOC(=O)[C@@H](N)Cc1ccc(-c2cc(O[C@H](c3ccc(Cl)cc3-n3ccc(C)n3)C(F)(F)F)nc(N)n2)cc1 [Telotristat Etiprate (LX 1606 Hippurate)],inactive: 1.34
7,CC(C)CC(N)=O [Isovaleramide],inactive: 3.32
8,CN1CCN(C2=Nc3ccccc3Oc3ccc(Cl)cc32)CC1 [Loxapine Succinate],inactive: 0.791
9,N=C(NCCCCCCNC(=N)NC(=N)Nc1ccc(Cl)cc1)NC(=N)Nc1ccc(Cl)cc1 [Chlorhexidine HCl],active: -5.14
10,COc1c2occc2cc2ccc(=O)oc12 [Methoxsalen],inactive: -0.899
11,Cc1nnc(C(=O)NC(C)(C)c2nc(C(=O)NCc3ccc(F)cc3)c(O)c(=O)n2C)o1 [Raltegravir (MK-0518)],inactive: 0.297
12,c1ccc(NCc2ccc(CNc3ccccn3)cc2)nc1,inactive: -0.416
13,COC(=O)c1ccc2c(c1)nc(NC(=O)c1ccccc1)n2CCCc1ccccc1,inactive: 8.67
14,CN1CCN(Cc2ccc(Nc3ncc(Cl)c(Nc4ccccc4S(=O)(=O)N(C)C)n3)cc2)CC1,active: -5.89
15,O=C(O)c1cn(-c2ccc(F)cc2)c2cc(N3CCNCC3)c(F)cc2c1=O [Sarafloxacin HCl],inactive: 0.133
16,Cc1cc2c(cc1CC(=O)c1sccc1S(=O)(=O)Nc1onc(C)c1Cl)OCO2 [Sitaxentan sodium],inactive: 10.3
17,O=C(NC[C@H]1CN(c2ccc(N3CCOCC3=O)cc2)C(=O)O1)c1ccc(Cl)s1 [Rivaroxaban],inactive: 0.944
18,C[C@@H]1C[C@H]2[C@@H]3C[C@H](F)C4=CC(=O)C=C[C@]4(C)[C@@]3(F)[C@@H](O)C[C@]2(C)[C@@]1(O)C(=O)CO [Flumethasone],inactive: 1.91
19,COC(=O)C1=C(C)NC(C)=C([N+](=O)[O-])C1c1ccccc1C(F)(F)F (stereo unspecified),inactive: 2.76
20,COc1ccc(-c2ccc3c(N4CCOC[C@@H]4C)nc(N4CCOC[C@@H]4C)nc3n2)cc1CO,inactive: -1.03
21,CC(C)C[C@H](NP(=O)(O)O[C@@H]1O[C@@H](C)[C@H](O)[C@@H](O)[C@H]1O)C(=O)N[C@@H](Cc1c[nH]c2ccccc12)C(=O)O [Phosphoramidon Disodium Salt],inactive: 0.316
22,COc1ccc2c(c1)CCC1C2CCC2(C)C(NCCCCCCN3C(=O)C=CC3=O)CCC12 (stereo unspecified),inactive: 1.91
23,COc1c(C)c(C(=O)c2ccc(N)c(C(=O)O)c2)n2ccccc12,inactive: -0.291
24,COc1nccc(-c2c(-c3ccc(F)cc3)ncn2C2CCC(O)CC2)n1 (stereo unspecified),inactive: 0.63

row,Compound,nuclei number (z-score)
1,Cc1c(C(=O)Nc2ccc(Oc3ccnc4[nH]cc(-c5ccccc5)c34)c(F)c2)c(=O)n(-c2ccc(F)cc2)n1C,inactive: 0.287
2,CN[C@@H](C)C(=O)N[C@H](C(=O)N1CCC[C@H]1c1nc(C(=O)c2ccc(F)cc2)cs1)C1CCCCC1,inactive: -0.0581
3,CCCc1cc(C)[nH]c(=O)c1CNC(=O)c1cc(-c2ccc(N3CCN(C(C)C)CC3)nc2)cc2c1cnn2C(C)C,inactive: 0.555
4,"O=c1cc(-c2ccccc2)oc2c(O)c(O)ccc12 [7,8-Dihydroxyflavone]",inactive: 0.648
5,CCN(CC)CCOC(=O)C1(C2CCCCC2)CCCCC1 [Dicyclomine HCl],inactive: 1.98
6,CC(=O)Oc1ccccc1C(=O)Nc1ncc([N+](=O)[O-])s1 [Nitazoxanide],inactive: -0.475
7,NC(=O)c1ccc(N(C(N)=O)c2c(F)cccc2F)nc1-c1ccc(F)cc1F,inactive: 0.794
8,N=C1NC(=O)/C(=C/c2ccc(O)cc2)S1 [Mirin],inactive: 6.84
9,Nc1c(CC(=O)O)cccc1C(=O)c1ccccc1 [Amfenac Sodium Monohydrate],inactive: -0.161
10,CC(C)(C)C(=O)Nc1ccc2c(c1)C(=O)C(=O)c1ccccc1-2,inactive: -0.0475
11,COc1ccc([C@@H]2CC(=O)c3c(O)cc(O)cc3O2)cc1O [Hesperetin],inactive: -0.367
12,COc1cc(Br)c(Nc2nc(-c3c(C)nc4ncccn34)cs2)c(Br)c1,inactive: 0.928 and inactive: -0.582
13,O=C(O)CCCCCCCC(=O)O [Azelaic acid],inactive: -0.293
14,COC(=O)Nc1nc2cc(C(=O)c3cccs3)ccc2[nH]1 [Nocodazole],inactive: -1.59
15,Cc1ccc(C(=O)c2ccc(CC(=O)O)n2C)cc1 [Tolmetin Sodium],inactive: -0.185
16,FC(F)(F)C(Cl)Br (stereo unspecified) [Halothane],inactive: 0.712
17,CCN[C@H]1CN(CCCOC)S(=O)(=O)c2sc(S(N)(=O)=O)cc21 [Brinzolamide],inactive: 0.768
18,CC(C)Oc1ccc(-c2c[nH]cc2CN(C)CCN)cc1,inactive: 0.405
19,Cc1ncc(C[n+]2csc(CCO)c2C)c(N)n1 [Thiamine HCl (Vitamin B1)],inactive: -0.0576
20,CC(C)c1c(C(=O)Nc2ccccc2)c(-c2ccccc2)c(-c2ccc(F)cc2)n1CC[C@@H](O)C[C@@H](O)CC(=O)O [Atorvastatin Calcium],active: -2.68
21,CC(C)(C)c1cnc(CSc2cnc(NC(=O)C3CCNCC3)s2)o1,active: -3.82
22,C[C@@H](NCCCc1cccc(C(F)(F)F)c1)c1cccc2ccccc12 [Cinacalcet HCl],inactive: -0.981
23,CC(=O)Nc1cccc(-n2c(=O)n(C3CC3)c(=O)c3c(Nc4ccc(I)cc4F)n(C)c(=O)c(C)c32)c1,inactive: -0.948
